# Source: the supplement of paper PMC4166925
# ± gives the standard deviation of the averaged measurements. Over roughly 33,000 sequences, “E-score (dimensionless, -0.5 to 0.5)” has its median near -0.049; the highest 2% begin near 0.37. The list shows a part of the results.
# Tested on: T1, PmTbr T-box DNA-binding domain (GST fusion)
# T1 sequence: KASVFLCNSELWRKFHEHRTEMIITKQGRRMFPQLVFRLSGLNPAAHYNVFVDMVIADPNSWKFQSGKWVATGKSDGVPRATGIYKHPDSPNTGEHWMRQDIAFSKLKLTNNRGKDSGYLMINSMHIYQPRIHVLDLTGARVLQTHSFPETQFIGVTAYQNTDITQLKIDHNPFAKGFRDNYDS
# Experiment: PBM E-score of 8-mer (E-score (dimensionless, -0.5 to 0.5)); Tbr is Tbrain of the sea star Patiria miniata (Pm) or the sea urchin Strongylocentrotus purpuratus (Sp); higher = stronger binding preference; most listed sequences are background and not binding sites
# Conditions: the construct has about 5 more residues each side
# How it was run: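 Expression of GST-fused Tbr T-box DNA-binding domains, each holding the full T-box plus roughly five flanking residues, was carried out in BL21 E. coli at 20 °C, with purification by glutathione affinity chromatography. Universal Agilent arrays made double-stranded by primer extension were incubated with the protein at 200 nM in PBS (pH 7.5), then scanned and quantified. All ungapped 8-mers were scored from probe intensities, and each received an enrichment E-score from the Universal PBM Analysis Suite, averaged over duplicate arrays.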
row,Sequence,PBM E-score of 8-mer
1,CTGGCGCA,0.019 ± 0.0017
2,CTTACGGC,-0.138 ± 0.043
3,AAACCGGA,-0.0578 ± 0.0015
4,AACCTTTA,-0.0895 ± 0.057
5,CCGTCCTC,-0.267 ± 0.0041
6,AACACCCC,0.433 ± 0.0072
7,CTTTTAGA,-0.255 ± 0.07
8,CCAAGTAA,-0.191 ± 0.054
9,GTGCCCAC,-0.203 ± 0.019
10,GACACAGC,0.1102 ± 0.00023
11,CCCCCGCC,0.0393 ± 0.042
12,GACGAGTA,-0.0965 ± 0.023
13,AGAGTTAT,-0.0216 ± 0.013
14,AACGCTAG,0.125 ± 0.02
15,CCATCATC,-0.0566 ± 0.031
16,ACGTCTCT,-0.0986 ± 0.016
17,CGATGTCA,0.0984 ± 0.03
18,AGAACGAG,-0.0902 ± 0.0033
19,TCCAGGCA,-0.4441 ± 0.0044
20,ATATCAAC,0.0198 ± 0.04
21,ATATATAT,-0.0347 ± 0.059
22,GCTCACAA,0.132 ± 0.037

row,Sequence,PBM E-score of 8-mer
1,CGTCCAAC,-0.0771 ± 0.053
2,CTAGGCTC,-0.116 ± 0.076
3,ACCGCGTG,0.301 ± 0.021
4,AAGACACA,0.0664 ± 0.031
5,GTCCCGAA,-0.123 ± 0.0091
6,ACCGGGTA,-0.209 ± 0.1
7,AAATATCT,-0.0432 ± 0.073
8,CAGCATGA,-0.17 ± 0.008
9,GAAGCGCA,0.0102 ± 0.0031
10,GCCTCTAC,-0.0551 ± 0.073
11,GGTAATAC,-0.222 ± 0.0066
12,ATAAGTTA,-0.0303 ± 0.078
13,CCAGCAGC,-0.165 ± 0.081
14,AGGGTCAA,-0.22 ± 0.031
15,ACCGATAA,0.124 ± 0.036
16,AGCCCTTA,-0.265 ± 0.047
17,GTCGTAAC,0.13 ± 0.018
18,ACTAGCAG,-0.0294 ± 0.074
19,CTGTAGTC,-0.217 ± 0.031
20,AGCTCTAC,-0.155 ± 0.018
21,GAATTCCC,0.0309 ± 0.029
22,ATACTAAG,-0.149 ± 0.09

row,Sequence,PBM E-score of 8-mer
1,CCTTGCCA,-0.0347 ± 0.035
2,ATGCTGCC,-0.293 ± 0.037
3,CCGAGAAA,-0.00927 ± 0.024
4,CTCAGTCC,-0.148 ± 0.11
5,CAACCATA,-0.0974 ± 0.051
6,CGCGTGCA,-0.0148 ± 0.058
7,CGAATCAA,0.0381 ± 0.021
8,CCGTGTAG,-0.0444 ± 0.053
9,GCGTAAGC,-0.0353 ± 0.016
10,CAGCTATA,-0.0172 ± 0.066
11,ATGCATAG,-0.105 ± 0.011
12,CGCTAAGA,0.205 ± 0.039
13,GGGAGATA,-0.077 ± 0.1
14,TCATCGAA,-0.155 ± 0.1
15,AGTATGAT,-0.0161 ± 0.089
16,CCGATCGC,0.0207 ± 0.021
17,AGAGAATC,-0.0446 ± 0.043
18,CGAACACA,0.2078 ± 0.0007
19,GGCGAGCA,-0.102 ± 0.048
20,GTCTAAAA,-0.0666 ± 0.022
21,CCGGTGAG,0.0229 ± 0.12
22,CGCGGTTA,0.0257 ± 0.021

row,Sequence,PBM E-score of 8-mer
1,ACGTTTTG,0.0123 ± 0.034
2,GGATTGCA,-0.0775 ± 0.053
3,AAAGGTGA,0.398 ± 0.025
4,TACATACA,-0.24 ± 0.07
5,GATGATAC,-0.134 ± 0.052
6,ATAAACGG,-0.131 ± 0.087
7,AGAAAAGG,-0.0223 ± 0.033
8,GCTAATAA,-0.0664 ± 0.054
9,CACCCCTG,0.322 ± 0.012
10,ACCGTAGG,0.0335 ± 0.018
11,GCCCGCGC,-0.0513 ± 0.00069
12,AATCGTCA,0.21294 ± 0.00012
13,CAGGCAGG,-0.131 ± 0.083
14,AATCGTGA,0.194 ± 0.0058
15,CGCGTTAA,0.27 ± 0.013
16,CGGCGACG,-0.0498 ± 0.079
17,CCTATCCG,-0.178 ± 0.0092
18,CCTGTACG,-0.199 ± 0.028
19,AGTGTCGG,0.38 ± 0.0074
20,CACGTCGG,0.281 ± 0.016
21,CAATCGGA,-0.266 ± 0.029
22,GACGTATA,-0.189 ± 0.055

row,Sequence,PBM E-score of 8-mer
1,ACGTCAGT,0.0998 ± 0.0086
2,CACGCCAA,0.312 ± 0.013
3,ATAAAAGC,0.015 ± 0.061
4,GATGAGGC,-0.243 ± 0.04
5,AGTGGTTC,-0.18 ± 0.0056
6,TTACCAAA,0.1 ± 0.065
7,CACCGGTA,0.116 ± 0.025
8,TATTCGAA,0.0267 ± 0.0037
9,CAGCTGTA,-0.0311 ± 0.023
10,CAGAAAAC,-0.0688 ± 0.07
11,ACGGCTCG,0.216 ± 0.023
12,GTCAACAC,0.427 ± 0.012
13,AATGTACT,-0.191 ± 0.068
14,CTAGTCCC,-0.132 ± 0.064
15,TGACGGCA,0.126 ± 0.097
16,CAACAGAC,-0.137 ± 0.0075
17,CCATCGTC,0.147 ± 0.0089
18,CACTGGTA,-0.0275 ± 0.024
19,ATCACTAG,0.0709 ± 0.015
20,GGTACACC,-0.0342 ± 0.029
21,AATAGAAT,-0.0447 ± 0.008
22,GAGTCCAA,0.00391 ± 0.083
